In patent publication US20110166106A1, “ARTEMISININ AND DERIVATIVES THEREOF AS ANTIVIRALS” (priority 2008, published 2011):

System: Infected and uninfected HSB-2 cells
Test: Caspase-Glo 3/7 apoptosis assay
Format: cell-based
Details: 3 days incubation, 0.5 μM to 15 μM

In the case of C[C@H]1[C@H](OC(=O)CCC(=O)O)O[C@@H]2O[C@@]3(C)CC[C@H]4[C@H](C)CC[C@@H]1[C@@]24OO3 [ART, artesunate], the apoptosis signals induced is reported as “very low”.
